In paper PMC4336329 (PLoS ONE, 2015):
In all, about 310,000 compounds went through this assay and about 2,200 (0.71%) showed an effect of 50% or more. The effect is printed as a negative number. Some of the results follow.

Molecular target: human ether-à-go-go-related gene (hERG) potassium channel (human, UniProt Q12809)
Assay: primary screen, population patch clamp on CHO cells stably expressing hERG

Sequence of human ether-à-go-go-related gene (hERG) potassium channel (Q12809 whole entry, looked up): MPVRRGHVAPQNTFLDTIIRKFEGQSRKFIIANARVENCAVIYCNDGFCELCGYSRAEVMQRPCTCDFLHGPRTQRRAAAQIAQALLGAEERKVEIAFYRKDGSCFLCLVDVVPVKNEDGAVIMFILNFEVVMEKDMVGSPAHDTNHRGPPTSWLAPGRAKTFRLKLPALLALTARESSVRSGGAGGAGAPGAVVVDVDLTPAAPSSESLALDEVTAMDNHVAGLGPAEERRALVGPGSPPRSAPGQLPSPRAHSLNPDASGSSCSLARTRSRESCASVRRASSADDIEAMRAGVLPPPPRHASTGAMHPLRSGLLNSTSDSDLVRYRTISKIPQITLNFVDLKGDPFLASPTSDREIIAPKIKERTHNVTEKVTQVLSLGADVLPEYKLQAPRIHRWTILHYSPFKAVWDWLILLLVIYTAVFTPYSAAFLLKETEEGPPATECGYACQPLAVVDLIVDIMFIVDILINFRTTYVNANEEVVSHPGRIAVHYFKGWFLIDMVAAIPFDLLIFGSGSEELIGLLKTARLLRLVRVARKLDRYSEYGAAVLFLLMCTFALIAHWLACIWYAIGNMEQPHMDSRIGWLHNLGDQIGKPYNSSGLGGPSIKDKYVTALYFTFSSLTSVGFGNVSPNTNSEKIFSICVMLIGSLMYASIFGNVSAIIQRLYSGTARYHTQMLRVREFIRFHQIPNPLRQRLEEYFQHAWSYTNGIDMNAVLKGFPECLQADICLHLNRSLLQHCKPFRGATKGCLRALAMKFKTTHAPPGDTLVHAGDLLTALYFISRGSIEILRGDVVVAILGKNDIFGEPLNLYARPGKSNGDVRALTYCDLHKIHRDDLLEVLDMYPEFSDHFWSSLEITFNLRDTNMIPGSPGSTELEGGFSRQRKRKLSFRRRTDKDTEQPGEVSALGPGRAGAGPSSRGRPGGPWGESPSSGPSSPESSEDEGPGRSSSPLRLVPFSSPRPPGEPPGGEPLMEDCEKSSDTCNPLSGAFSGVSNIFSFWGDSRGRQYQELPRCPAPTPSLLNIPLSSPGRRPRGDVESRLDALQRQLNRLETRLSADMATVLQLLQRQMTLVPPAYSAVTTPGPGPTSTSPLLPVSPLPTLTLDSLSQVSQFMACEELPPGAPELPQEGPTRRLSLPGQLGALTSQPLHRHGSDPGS

First: COc1ccccc1-c1nnc2n1N=C(c1ccc(O)c(O)c1)CS2
Second: CCOC(=O)COn1c(=O)c(-c2ccc(OC)c(OC)c2)[n+]([O-])c2ccccc21
The “hERG current change (%, negative = inhibition) at 1uM” value of the first is lower: -1.46% for the first, 3.94% for the second.

Compared with `O=C(Nc1cccc(S(=O)(=O)N2CCOCC2)c1)c1cc2ccccc2o1`, `COc1ccc(NC(=O)C2CC2)cc1S(=O)(=O)N1CCOCC1` is lower in “hERG current change (%, negative = inhibition) at 1uM” value: -3.76% for the first, -18.8% for the second.

Going from `COc1ccc(CNC(=O)N[C@@H](Cc2c[nH]c3ccccc23)C(=O)O)cc1` to `O=C(COC(=O)c1ccc(NS(=O)(=O)c2cccs2)cc1O)NCc1ccccc1`, the “hERG current change (%, negative = inhibition) at 1uM” value falls from 9.53% to 1.51%.

Compared with `CCN1CCN(c2ccc(N3CCN(S(=O)(=O)c4cc([N+](=O)[O-])ccc4C)CC3)nn2)CC1`, `COc1cc2c(cc1OC)CN(C(=O)CN1CCN(S(=O)(=O)c3ccccc3)CC1)CC2` is higher in “hERG current change (%, negative = inhibition) at 1uM” value: -17.2% for the first, 4.2% for the second.

Going from `COc1ccc(NC(=S)N(Cc2cccnc2)Cc2ccco2)cc1` to `COc1ccc(NC(=O)N2CCC(n3cnc4ccccc43)CC2)cc1`, the “hERG current change (%, negative = inhibition) at 1uM” value falls from -3.05% to -8.51%.

First: CCOc1cccc(C2C(C(=O)c3ccco3)=C(O)C(=O)N2Cc2ccncc2)c1 (stereo not shown)
Second: O=c1[nH]c(=S)n(Cc2ccc(F)cc2)c(O)c1C=NCc1cccnc1
The “hERG current change (%, negative = inhibition) at 1uM” value of the first is higher: 20.5% for the first, 7.39% for the second.

Going from `CCOCCCNC(=O)c1ccc(NC(=O)C2=CSCCO2)cc1` to `CCCOc1ccc(C(=O)NCCCn2ccnc2)cc1`, the “hERG current change (%, negative = inhibition) at 1uM” value falls from 14.6% to -1.56%.

Going from `Cc1ccccc1C(=O)NC1CCN(CC(=O)Nc2ccc3c(c2)OCO3)CC1` to `Cc1cc(C)cc(C(=O)Nc2ccc(N3CCCC3)cc2)c1`, the “hERG current change (%, negative = inhibition) at 1uM” value rises from -11% to 8.36%.

Compared with `COc1ccc(N(C(=O)c2ccn[nH]2)C(C(=O)NC(C)(C)C)c2ccc(F)cc2)cc1` (stereo not shown), `CC(C)(C)c1ccc(OCCCC(=O)Nc2ccc(S(N)(=O)=O)cc2)cc1` is lower in “hERG current change (%, negative = inhibition) at 1uM” value: 19.5% for the first, 0.457% for the second.

Compared with `CCc1ccccc1N1C(=O)C(Cl)=C(N2CCOCC2)C1=O`, `O=C1CN(C(=O)COC(=O)CCSc2ccccc2Cl)c2ccccc2N1` is lower in “hERG current change (%, negative = inhibition) at 1uM” value: 16.2% for the first, 10.2% for the second.

Compared with `COCCn1c(SCc2cc(C(C)=O)ccc2OC)nc2cc(Cl)ccc2c1=O`, `COc1cc(OC)c(OC)cc1/C=N/NC(=O)CSc1ccccc1F` is lower in “hERG current change (%, negative = inhibition) at 1uM” value: 2.65% for the first, 2.29% for the second.

First: COc1ccc(S(=O)(=O)NC2CCCCCC2)c(OC)c1
Second: COc1cccc(NS(=O)(=O)c2c(C)n(C)c(=O)n(C)c2=O)c1
The “hERG current change (%, negative = inhibition) at 1uM” value of the first is higher: 8.39% for the first, -10.1% for the second.

Going from `O=C(CNc1cccc2ccccc12)N/N=C/c1cccc(Oc2ccccc2)c1` to `CC(=O)Nc1ccc(NC(=O)C/C(C)=N/NC(=O)c2cccc3ccccc23)cc1`, the “hERG current change (%, negative = inhibition) at 1uM” value falls from 14.8% to 8.03%.

First: N/C(=N\c1nc2c(c(=O)[nH]1)CCC2)Nc1ccccc1
Second: Cc1cc(OC(C)C(=O)NCc2cccnc2)c2c3c(c(=O)oc2c1)CCC3 (stereo not shown)
The “hERG current change (%, negative = inhibition) at 1uM” value of the first is lower: 3.8% for the first, 13% for the second.

Going from `CCC1(C)Cc2c(sc3nc4n(c(=O)c23)CCCS4)CO1` (stereo not shown) to `CCOC(=O)c1sc2nc(C3CC3)cc(-c3ccc(F)cc3)c2c1N`, the “hERG current change (%, negative = inhibition) at 1uM” value rises from -2.06% to 13.3%.

First: CC(C)=N/N=C(/c1ccc([N+](=O)[O-])cc1)C12CN3CN(CN(C3)C1)C2
Second: CCCn1c(SCC(=O)N(C)CC(=O)Nc2ccc(Cl)cc2)n[nH]c1=O
The “hERG current change (%, negative = inhibition) at 1uM” value of the first is higher: 7.82% for the first, 2.06% for the second.

Compared with `CCN1CCN(C(c2ccc(F)cc2)c2nnnn2Cc2cccs2)CC1` (stereo not shown), `CC(C)N(C)Cc1nnnn1CC(=O)N(C)Cc1cccc(Cl)c1` is higher in “hERG current change (%, negative = inhibition) at 1uM” value: -29.9% for the first, 17.8% for the second.

Going from `Nc1ccc(-c2ccc(N)c(C(=O)O)c2)cc1C(=O)O` to `Cc1ccccc1-n1nc(C)c2c(C(=O)NN)cc(-c3ccncc3)nc21`, the “hERG current change (%, negative = inhibition) at 1uM” value rises from 1.09% to 10.5%.

Compared with `CN(C)C(=O)C1C2NC(=S)N(c3ccc(Cl)cc3)C1(C)Oc1ccc(Cl)cc12` (stereo not shown), `COc1cccc(N2CC(C(=O)Oc3ccc4ccccc4c3)CC2=O)c1` (stereo not shown) is lower in “hERG current change (%, negative = inhibition) at 1uM” value: 11.5% for the first, 5.81% for the second.

Going from `CCOc1ccccc1OCC(=O)Nc1ccc(S(=O)(=O)Nc2nc(C)cc(C)n2)cc1` to `O=C(C[n+]1ccc(C(=O)c2ccccc2)cc1)Nc1ccc(C(F)(F)F)cc1.[Cl-]`, the “hERG current change (%, negative = inhibition) at 1uM” value rises from 0.94% to 4.51%.

Compared with `O=C(COC(=O)c1ccc(Br)o1)NCCNC(=O)COC(=O)c1ccc(Br)o1`, `COC(=O)CCCC1=CC2=C(c3ccccc3)C(=O)C(C)(OC(=O)C3CCCC3)C(=O)C2=CN1CC1CC1` (stereo not shown) is lower in “hERG current change (%, negative = inhibition) at 1uM” value: 13.4% for the first, -10.6% for the second.

With `CCC(=S)/C=C1\Sc2ccccc2N1CCCS(=O)(=O)[O-].[Na+]` the “hERG current change (%, negative = inhibition) at 1uM” value was 8.37%.
